Laboratory results: ChEMBL document CHEMBL4888484, “Replenishing the malaria drug discovery pipeline: Screening and hit evaluation of the MMV Hit Generation Library 1 (HGL1) against asexual blood stage Plasmodium falciparum ,using a nano luciferase reporter read-out” (2022)
The campaign covered roughly 150,000 compounds. About 540 (0.36%) showed an effect of 50% or more. This is one part of the list.

Tested on: Plasmodium falciparum
Experiment: Primary screen in NF54 nanoGlo assay, in single point, at 2uM, 72h; a lower Z score goes with more inhibition
Format: functional, Erythrocyte
Conditions: timepoint 72 hour

Structure (SMILES) | % Inhibition [%] | Z score
COc1c2c(cc3c1[C@H](c1nnnn1C(c1ccccc1)c1ccccc1)[N+](C)(C)CC3)OCO2 | -1 | 0.07
Cc1ccc(-c2nc(N3CCN(C(=O)COCc4ccccc4)CC3)c3ccc(Cl)cc3n2)cc1 | -15 | 1.38
O=S(=O)(c1cccc(-c2ccccc2)c1)N1CC2(CCNCC2)[C@@H]2COC[C@@H]21 | -9 | 1.35
COc1cc(CC(=O)N2CCC[C@@](F)(C(=O)NCc3cccnc3)C2)cc(OC)c1 | -30 | 2.62
CN(C)c1cccc(Cn2ccnc2C#N)n1 | -6 | 0.92
N[C@H]1CCCN(C(=O)CCCc2ccccn2)C1 | -11 | 1.43
CCc1noc(Cc2c(C)[nH]c3c(C)ccc(C)c23)n1 | -3 | 0.56
CC(C)n1cc(C(=O)N[C@H]2CCN(C(=O)OCc3ccccc3)C2)cn1 | 2 | -0.28
O=C(CCn1c(=O)cc(C(F)F)c2cn(Cc3ccccc3)nc21)NC1CCCC1 | 3 | -0.39
CCOC(=O)CN(CC(=O)NCc1ccc2c(c1)OCO2)C(C)(C)C | -13 | 1.71
O=C(Cc1ccc(F)cc1F)N1CC(CN2C(=O)CCC2=O)C1 | -13 | 1.67
Cc1cc(NC(=O)Cn2c(=O)c(C(F)(F)F)cn(C(C)C)c2=O)no1 | -21 | 2.62
CCc1cc(NC(=O)NC2CCN(c3ccc(C(C)(C)C)cc3)CC2)n(C)n1 | -3 | 0.31
CC(C)CNC(=O)c1cc2cc(NC(=O)c3ccc(C(C)(C)C)cc3)ccc2n1Cc1ccc(C(C)(C)C)cc1 | -3 | 0.34
COC(=O)CN1CCN(C(=O)c2[nH]c3ccc(C)cc3c2C)CC1=O | -7 | 0.59
CC(C)OC(=O)Cc1nnc2cc(Cl)ccc2n1 | 1 | -0.19
O=C(CCCC(=O)N1CC[C@H](OCC2CC2)C1)c1ccccc1 | -21 | 3.3
CN(C)C(=O)[C@H](NC(=O)c1cc(Cl)c2c(c1)OCCCO2)c1ccccc1 | -34 | 4.01
COc1cc(NC(=O)N2C[C@@H](F)C[C@H]2C(=O)N2CCc3ccccc3C2)cc(OC)c1 | -9 | 1.04
CCOC(=O)c1cc2n(n1)C[C@@](C)(C(=O)NCCC(C)C)N(c1ccc(C)cc1C)C2=O | -5 | 0.58
O=C(Cn1cnc2c(cnn2-c2cccc(Cl)c2)c1=O)N1CCC(Cc2ccccc2)CC1 | 7 | -0.93

Structure (SMILES) | % Inhibition [%] | Z score
CN1CCN(CCOc2ccc(NC(=O)c3ncc4c(F)cccn34)cc2)CC1 | -10 | 1.41
Cn1cc(C(=O)N2CCCOCC2)c(C(F)F)n1 | -16 | 1.85
O=C(NC[C@@H](O)CCc1ccccc1)c1ccc(O)c(Cl)c1 | 4 | -0.74
Cc1cc(=O)n(CCN(C)CCc2scnc2C)c(=O)[nH]1 | -14 | 1.3
CC1(C)CN(CC(=O)N2CCCC2)c2ccc(S(=O)(=O)Nc3cccnc3)cc21 | 3 | -0.38
C=CCNC(=O)[C@@H](NC(=O)c1cccc(OC)c1)C1CCN(C(=O)c2ccc(C)cc2)CC1 | -14 | 1.28
CC(C)n1cc([C@H](C)NC(=O)c2cc3n(n2)CCC3)cn1 | -6 | 0.98
O=C1NCCN1C(=O)N[C@H]1CC[C@H](Oc2cnccn2)CC1 | -2 | 0.25
CN1CCCC(C)(C)[C@@H]1CNC(=O)NCc1nccn1C(F)F | -8 | 0.9
CC(C)(C)OC(=O)CCc1cccnc1C(=O)O | -18 | 1.85
CCn1c(C[C@H]2CCN(S(=O)(=O)c3cc(F)cc(F)c3)C2)nc2cccnc21 | -4 | 0.38
O=S(=O)(C[C@@H]1C[C@H]2COC[C@@H]2O1)NC1COc2ccccc2C1 (some centres undefined) | -9 | 0.94
Cc1cc(F)c(CNC(=O)c2coc3c2C(=O)NCCC3)c(F)c1 | -13 | 2.62
COCCN1C(=O)C[C@H](Nc2ccc3c(c2)CCC3)C1=O | 36 | -1.13
C[C@H]1c2ccc(F)cc2CCN1CC(=O)N1CCCC1 | -7 | 1.34
CCCNC(=O)N1CCC[C@H](N(CCCN2CCCC2)C(=O)C(C)C)C1 | -1 | 0.08
c1cc(CN2CCC[C@H](Nc3ccc4c(c3)OCCO4)C2)c2ccncc2c1 | -7 | 1
COC(=O)[C@@H](NC(=O)Cc1csc(C)n1)C(C)(C)C | -14 | 1.77
Cc1ccc(F)c(NC(=O)c2sc(Nc3cccc(F)c3)nc2C)c1 | 5 | -0.62
Cc1ccc(F)cc1S(=O)(=O)N1CC(=O)N(C2CCCC2)C2(CCCCC2)C1 | -5 | 0.72
CC[C@@H](Cn1cnc2c(c1=O)CC(C)(C)CC2)OC | -3 | 0.49

Structure (SMILES) | % Inhibition [%] | Z score
Cc1ccc(C(=O)N2CCCCCCN(C)C(=O)[C@@H]3CCC[C@@H]32)s1 | -8 | 1.37
O=C(COC(=O)c1cccc(S(=O)(=O)N2CCCc3ccccc32)c1)Nc1ccc2c(c1)OCO2 | -3 | 0.31
COc1ccc(-c2csc(Nc3ncnc4ncccc34)n2)c(O)c1 | 28 | -3.32
CN(CC(=O)Nc1cccc(Cl)c1)C(=O)[C@@H]1COCCN1CC1CCC1 | -10 | 1.32
Cc1nnc(CCNC(=O)Nc2cccc3c4c(oc23)CCCC4)s1 | 3 | -0.53
C[C@]1(O)CCN(c2ncccc2C(N)=O)C[C@H]1Cc1ccccc1 | -7 | 1.06
O=C(O)Cn1nc(C2CC2)c2c(C(F)F)cc(-c3ccc(F)cc3)nc21 | 0 | 0.06
O=C(NC1CC1)c1nc(-c2ccccn2)nc2c1OCCO2 | -4 | 0.46
C=CCNC(=O)COc1cccc(Cl)c1C#N | -7 | 1.41
CC(C)(NCC(=O)N1CCCCC1)c1ccc2c(c1)OCO2 | 5 | -0.66
COc1ccnc(N(C)C2CCCC2)n1 | -7 | 0.72
COc1cccc(-c2cc3n(n2)CCCN(C(=O)c2ccc(N4CCCC4=O)cc2)C3)c1 | -15 | 1.68
CC(=O)N(Cc1csc([C@@H]2CCCO2)n1)S(=O)(=O)c1ccc(Br)cc1 | -2 | 0.37
N#Cc1ccc(N[C@H]2CCN(C(=O)CCc3ccccc3)C2)cn1 | -11 | 1.23
CC[C@@H](C(=O)NC1CCCCC1)N1CCS(=O)(=O)CC1 | 2 | -0.24
COc1ccnc(N2CC(c3ncc(C4CC4)cn3)C2)n1 | -8 | 1.19
COCCc1nsc(NCc2ccncc2)n1 | -7 | 0.77
COc1ccc(C2(CC(=O)N[C@H]3CCCCNC3=O)CC(=O)N(C3CCCC3)C2=O)cc1 (some centres undefined) | -15 | 2.71
COc1ccc(C2C(C(=O)N3CCC(Cc4ccccc4)CC3)c3ccccc3C(=O)N2C)cc1 (centres undefined) | -11 | 1.8
N#C[C@@H](NC(=O)c1n[nH]c2ccccc12)c1cnn(-c2ccccc2)c1 | -11 | 1.36
CCOC(=O)c1cn(C)c(=O)n(C)c1=O | -8 | 1.56

Structure (SMILES) | % Inhibition [%] | Z score
COC[C@@H](c1ccccn1)N(C)C(=O)c1cc(C)nc(C)n1 | -15 | 1.94
COCCn1c(Cc2ccccc2F)nnc1N1CCN2CCCC[C@H]2C1 | 3 | -0.58
CC(C)COc1ccccc1NC(=O)[C@@H]1CCCO1 | -8 | 1.31
O=C(COC(=O)COc1ccccc1)Nc1ccc2c(c1)CCC2 | -11 | 2.02
COc1cccc(CN2CCN3C(=O)NC[C@H]3C2)c1 | -5 | 0.73
O=C(c1cc(O)ncn1)N1CCc2ccccc2C1 | -13 | 2.24
Cc1ccc(NC(=O)Cn2cc(-c3ccccc3)c3ncn(C4CC4)c(=O)c32)c(C)c1 | -7 | 1.03
Cc1cc2c3c([nH]c2cc1S(=O)(=O)N1CCCCC1)CC(C)(C)CC3=O | 0 | 0.01
Cc1nc(-c2ccccc2)sc1[C@H](C)NC(=O)N(C)c1ccc(F)cc1 | 10 | -1.42
Cc1ccc(C)c(S(=O)(=O)N(C)c2ccc(Oc3ncnc4ccccc34)cc2)c1 | 2 | -0.39
Cc1cc(C)n(C[C@H](C)NCc2ccc(-c3ncon3)cc2)n1 | 10 | -1.93
COc1ccc2cccc(NC(=O)c3cc(-c4cc(OC)c(OC)c(OC)c4)n[nH]3)c2n1 | 44 | -4.69
Cc1noc(C)c1CNc1nc2cc(Cl)ccc2n1C | 13 | -1.53
CCOC1CC(NC(=O)C2CCOCC2)C12CCCCC2 (centres undefined) | -7 | 1.06
COC[C@H]1NC(=O)CC[C@H]1C(=O)N1CCc2ccccc21 | -3 | 0.51
COc1cccc(CC(=O)N2CCC[C@H](CN3CCOCC3)CC2)c1 | 7 | -1.17
Cc1cccc(C)c1C=CC1CCN(C(=O)CN2CCC(C)CC2)CC1 | -1 | 0.17
O=C(COc1ccccc1)N1CC(OCc2ccc(Cl)cc2)C1 | -12 | 2.01
CN(CC(=O)N(C)Cc1cccc(C(F)(F)F)c1)Cc1cccnc1 | -4 | 0.61
